Experimental data: the supplement of paper PMC3334620
Whole data set: some 33,000 sequences, median “E-score (-0.5 to 0.5)” near -0.041, cut for the highest 2% near 0.37. Some of the results follow.

Biological target: T1, Ecm22 (UniProt Q05958)
T1 sequence: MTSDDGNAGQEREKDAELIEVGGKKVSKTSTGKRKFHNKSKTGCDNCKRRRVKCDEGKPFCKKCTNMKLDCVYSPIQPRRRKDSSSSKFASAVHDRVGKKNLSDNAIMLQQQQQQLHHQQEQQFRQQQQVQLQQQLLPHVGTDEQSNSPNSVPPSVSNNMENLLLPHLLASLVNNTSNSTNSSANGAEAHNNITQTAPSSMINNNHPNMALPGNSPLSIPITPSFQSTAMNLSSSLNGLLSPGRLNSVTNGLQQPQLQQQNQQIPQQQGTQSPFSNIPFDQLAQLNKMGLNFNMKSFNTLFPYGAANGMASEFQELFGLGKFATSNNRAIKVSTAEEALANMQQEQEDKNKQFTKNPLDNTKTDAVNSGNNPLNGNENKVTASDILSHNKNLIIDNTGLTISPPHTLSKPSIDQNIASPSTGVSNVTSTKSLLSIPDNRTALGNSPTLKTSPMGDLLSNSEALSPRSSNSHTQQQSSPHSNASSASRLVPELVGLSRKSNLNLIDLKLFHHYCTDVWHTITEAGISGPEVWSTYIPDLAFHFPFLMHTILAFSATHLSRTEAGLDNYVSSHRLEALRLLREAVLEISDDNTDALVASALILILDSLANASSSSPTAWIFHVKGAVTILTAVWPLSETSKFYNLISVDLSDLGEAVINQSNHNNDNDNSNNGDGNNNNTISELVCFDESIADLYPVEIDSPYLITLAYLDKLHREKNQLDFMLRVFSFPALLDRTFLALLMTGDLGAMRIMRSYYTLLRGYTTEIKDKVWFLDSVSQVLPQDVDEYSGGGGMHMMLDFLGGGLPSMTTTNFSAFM
Assay: PBM E-score (8-mer binding enrichment) (E-score (-0.5 to 0.5)); higher = stronger / more preferred TF binding; most listed sequences are background and not binding sites
Conditions: protein concentration: 200 nM; construct: GST-full length
Summary of the method: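 The E-score, a modified Wilcoxon-Mann-Whitney statistic, was computed by the Universal PBM Analysis Suite for every ungapped eight-base word pooled with its reverse complement. Scans behind it were normalised with masliner after bound GST-tagged yeast transcription factors were detected with fluorescent anti-GST. The proteins, at about 100-200 nM, had been applied to universal all-10-mer Agilent arrays made double-stranded by primer extension.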

Sequence	PBM E-score
CCAGCCGA	-0.0629
ACTATCAA	0.106
CGGAACTC	0.154
ACAAGCGG	-0.0363
ACCGTAAT	0.0766
GATGTCAC	-0.0882
AATAGACC	-0.228
ATCATGAC	0.00241
ATGAGAAC	-0.0785
CATGCTTA	-0.111
TCTAATCA	-0.129
GGATTTTA	0.132
AAGCGTCT	-0.144
CTACGTAG	-0.0163
CACCGTAC	0.4
AAATCCTG	0.015
CCTAAAGA	-0.112
GTAATCGA	0.216
GAGATTCA	-0.0447
TGGAAACA	-0.168
ACGAACAC	0.318
AGTGGCTA	-0.0843
AGGCCTTA	-0.137
CAATGACG	-0.147
TATTATCA	0.0569

Sequence	PBM E-score
ATGTAAGC	0.0707
CCCCCAAA	-0.297
TACCGCAA	0.0649
CCTCTGAG	-0.133
ACACGTTG	-0.189
AGAAACGA	0.424
ATGCCCCG	-0.175
ACATCCCC	-0.184
GAGATCGC	0.0991
ACGGTGAG	0.144
CATCCTGA	0.171
CCATGGTA	-0.00214
AATGTACC	-0.0709
TGAACTAA	-0.0481
AAGTTATC	-0.00283
CTCGAGAG	-0.291
GGATAACC	0.087
CCTACTCA	-0.216
CGTTTCCC	0.261
CCCAGTAG	-0.182
GGCATAAA	0.0318
AAAGACAG	-0.0492
GTAGGAGA	-0.259
AGAGGGCG	-0.108
GACCTGAC	-0.172

Sequence	PBM E-score
ACAGTGAA	-0.166
GAGGCCCA	-0.101
AGCCCCTA	-0.216
AAGCGGAG	-0.0139
CGCACAGA	0.0318
CGCGACAG	-0.121
CTCCGTAA	0.187
CCCATCTC	-0.0895
GAACAACA	0.0183
AGAAGACG	-0.0345
CGGGCAGA	0.0491
CACTCAAA	0.0318
CAGTGCGG	-0.0741
CTTTCTAC	-0.0484
TCATTACA	0.0242
CTAAACTC	-0.148
AGATTACT	-0.268
ATTACATA	0.0107
GCGGTGTA	0.118
CTAGAAAG	-0.263
AGATACCT	-0.116
ATATCAGC	-0.0788
GGGCAATA	-0.0635
TGAATGAA	0.0741
CGACTTTA	0.0873

Sequence	PBM E-score
AAAGACGG	-0.175
AACGTGTA	-0.00335
CACCCCGC	0.0147
ATACAGCC	-0.0802
AATATGGA	-0.0483
ACGCACCT	-0.0713
ATGGACCG	0.0932
CCATACCA	-0.0996
CTTGTGAC	-0.272
ATTGAGGC	-0.175
CATGGTTC	-0.00681
AGCTCAGA	-0.0723
CAGGTTCC	-0.265
GGTCTTAC	-0.0646
ACTTGGCC	-0.094
CGCCTTCA	-0.235
AACTGGAA	-0.166
CCGCTTGC	-0.015
CATCAATC	-0.0627
AGTGTGTG	0.00324
GAGGAACC	-0.0663
CCACTGTC	-0.046
AGTTAAAG	0.0343
CGCTTCTA	0.124
GCACACTA	-0.0692

Sequence	PBM E-score
TGCTAGCA	0.106
CCCGAAGG	0.045
GCGTTTAA	0.28
CCGCCTTC	-0.112
AAGTGCGA	0.129
CGCGCGAA	0.182
CCAGGAAA	-0.207
AGAACGCG	0.186
ACCATCTG	-0.195
CCTTCCTA	-0.202
ACATTCCG	-0.0408
GACGGCGA	0.0565
AACGAAGT	0.419
AAGCGAAA	0.188
ACCGTGGC	-0.113
AATCAAAG	-0.192
ATGATGAC	-0.0358
CTCAGCAA	0.0438
AACACATG	-0.0819
CAGGGCTA	-0.265
AGTCTATA	0.0901
AATTAAAG	-0.191
GCTATCCC	0.00169
ACGCTTTG	0.0782
AAGCAAAT	0.0192

Sequence	PBM E-score
ATCACGAG	0.168
AGGACCAG	-0.228
CAGCCTAG	-0.247
AGCGTAAG	0.0602
ATTGAACG	0.32
ATCGTTGC	0.347
CTGGTAAA	-0.0731
ACTGGCGC	-0.0524
CCCTTCTA	-0.258
AGCCGCCT	-0.125
GGCACAGA	-0.0886
CGCGGACG	0.0162
ACTCTGAT	-0.153
AGCCCCCG	-0.137
CGCCAACG	0.0795
ACAAGATA	-0.0925
GGACGGAA	-0.0866
GCAGCGAC	0.0343
GGTTGCCA	-0.171
CTAAGCGA	0.385
ATGACTAC	-0.0246
GCTCCTAC	-0.0343
GCGCAGCA	-0.306
CCAGTAAG	0.0694
CATGTCGC	0.115

Sequence	PBM E-score
ACGTCCCA	-0.215
AGCTAGGC	-0.233
AGGGTAGA	-0.115
ACTGCGAA	-0.134
GGTACGGA	0.413
GAGGGGCA	-0.089
GGAAGGTA	-0.0111
GAGTAACC	0.1
CAATGAGG	-0.0148
AGTGCTAT	-0.0327
CAATAGGC	-0.117
CTGTATGC	-0.121
GAAAGATC	0.0489
GGGGGGAA	-0.223
AGAGAAAC	0.00099
CCAATGCA	-0.202
GCGAGAAA	0.133
AACCGGCC	-0.0418
GTGACTGA	-0.142
GTAAACGA	0.485
AGAACCCC	-0.179
CTGGGGCA	-0.266
TAACGTCA	0.0349
AAGGCGCA	-0.0313
AAAAGTAA	-0.108

Sequence	PBM E-score
ACTGCCTA	-0.112
CCACCTCG	0.137
CGATAGCC	-0.0236
CCGAAAGG	-0.0107
CACGACGG	0.167
ACATCCAG	-0.0439
AGGTGAAT	-0.126
AACTTCAT	-0.13
GGGATTCA	-0.0716
TGTATGAA	0.0335
CCTGTTCG	0.159
AGTGTCAA	-0.131
ACTAGACT	0.0101
ACGGTGCC	0.16
ACAAAGTC	-0.0855
CAGATATC	-0.0887
AGTGAAAA	-0.112
CCGCTGAC	-0.153
CCCGCACG	-0.12
ACCTAGGT	0.0335
GTATCGCA	0.16
GAATCACC	0.109
CGGGACCG	0.187
AATAAGCC	-0.285
CGCAGTTA	-0.0607

Sequence	PBM E-score
ACTGGTCT	-0.123
ATGAGCAT	-0.104
CCGCCTGA	-0.0662
CAGGTTTA	0.00102
TAAGACGA	0.0531
ATGAGAAA	-0.132
AGCGATGA	0.124
GCGCACCC	0.0829
GCCTGAAA	-0.139
ACACACGG	-0.135
AACCGACC	0.294
CAACGCAG	-0.063
ATGCTGAG	-0.31
GAATAACC	-0.0393
GAACGTGA	0.00882
GCCTCGTA	0.481
ACAGACGC	-0.0563
ACCCTTTC	-0.163
GTAGCCGA	0.0917
